# Measured values: the supplement of paper PMC8728848
# The other results are listed elsewhere or left out.
# How the values were obtained:
# Assay in all cases: glycan array binding signal (z-score within array); higher = stronger binding
# Conditions in all cases: glycan notation: IUPAC condensed, linker removed
# [1] = molecular target: Gal(b1-4)GlcNAc(b1-3)Gal(b1-4)GlcNAc(b1-2)Man(a1-3)[Gal(b1-4)GlcNAc(b1-3)Gal(b1-4)GlcNAc(b1-2)Man(a1-6)]Man(b1-4)GlcNAc(b1-4)[Fuc(a1-6)]GlcNAc
# In short: (§1)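 The Consortium for Functional Glycomics database supplied 3228 glycan arrays, of which those lacking an available protein sequence were dropped. The binding signal, a within-array Z-score, was averaged across arrays of the same protein sequence and across linkers. Negative scores can be read as non-binding.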
# [2] = molecular target: Gal(b1-4)GlcNAc(b1-3)Gal(b1-4)GlcNAc(b1-2)[Gal(b1-4)GlcNAc(b1-3)Gal(b1-4)GlcNAc(b1-6)]Man(a1-6)[Gal(b1-4)GlcNAc(b1-3)Gal(b1-4)GlcNAc(b1-2)Man(a1-3)]Man(b1-4)GlcNAc(b1-4)GlcNAc
# In short: as §1
# [3] = molecular target: Gal(b1-4)GlcNAc(b1-3)Gal(b1-4)GlcNAc(b1-2)[Gal(b1-4)GlcNAc(b1-3)Gal(b1-4)GlcNAc(b1-6)]Man(a1-6)[Gal(b1-4)GlcNAc(b1-3)Gal(b1-4)GlcNAc(b1-2)Man(a1-3)]Man(b1-4)GlcNAc(b1-4)[Fuc(a1-6)]GlcNAc
# In short: as §1
# [4] = molecular target: Gal(b1-4)GlcNAc(b1-3)Gal(b1-4)GlcNAc(b1-3)Gal(b1-4)GlcNAc
# In short: as §1
# [5] = molecular target: Gal(b1-4)GlcNAc(b1-3)Gal(b1-4)GlcNAc(b1-3)Gal(b1-4)GlcNAc(b1-2)Man(a1-3)[Gal(b1-4)GlcNAc(b1-3)Gal(b1-4)GlcNAc(b1-3)Gal(b1-4)GlcNAc(b1-2)Man(a1-6)]Man(b1-4)GlcNAc(b1-4)GlcNAc
# In short: as §1
# [6] = molecular target: Gal(b1-4)GlcNAc(b1-3)Gal(b1-4)GlcNAc(b1-3)Gal(b1-4)GlcNAc(b1-2)Man(a1-3)[Gal(b1-4)GlcNAc(b1-3)Gal(b1-4)GlcNAc(b1-3)Gal(b1-4)GlcNAc(b1-2)Man(a1-6)]Man(b1-4)GlcNAc(b1-4)[Fuc(a1-6)]GlcNAc
# In short: as §1
# [7] = molecular target: Gal(b1-4)GlcNAc(b1-3)Gal(b1-4)GlcNAc(b1-3)Gal(b1-4)GlcNAc(b1-2)[Gal(b1-4)GlcNAc(b1-3)Gal(b1-4)GlcNAc(b1-3)Gal(b1-4)GlcNAc(b1-6)]Man(a1-6)[Gal(b1-4)GlcNAc(b1-3)Gal(b1-4)GlcNAc(b1-3)Gal(b1-4)GlcNAc(b1-2)Man(a1-3)]Man(b1-4)GlcNAc(b1-4)[Fuc(a1-6)]GlcNAc
# In short: as §1
# [8] = molecular target: Gal(b1-4)GlcNAc(b1-3)Gal(b1-4)GlcNAc(b1-3)Gal(b1-4)GlcNAc(b1-3)Gal(b1-4)GlcNAc(b1-2)Man(a1-3)[Gal(b1-4)GlcNAc(b1-3)Gal(b1-4)GlcNAc(b1-3)Gal(b1-4)GlcNAc(b1-3)Gal(b1-4)GlcNAc(b1-2)Man(a1-6)]Man(b1-4)GlcNAc(b1-4)GlcNAc
# In short: as §1
# [9] = molecular target: Gal(b1-4)GlcNAc(b1-3)Gal(b1-4)GlcNAc(b1-3)Gal(b1-4)GlcNAc(b1-3)Gal(b1-4)GlcNAc(b1-2)Man(a1-3)[Gal(b1-4)GlcNAc(b1-3)Gal(b1-4)GlcNAc(b1-3)Gal(b1-4)GlcNAc(b1-3)Gal(b1-4)GlcNAc(b1-2)Man(a1-6)]Man(b1-4)GlcNAc(b1-4)[Fuc(a1-6)]GlcNAc
# In short: as §1
# [10] = molecular target: Gal(b1-4)GlcNAc(b1-3)Gal(b1-4)GlcNAc(b1-3)Gal(b1-4)GlcNAc(b1-3)Gal(b1-4)GlcNAc(b1-2)[Gal(b1-4)GlcNAc(b1-3)Gal(b1-4)GlcNAc(b1-3)Gal(b1-4)GlcNAc(b1-3)Gal(b1-4)GlcNAc(b1-6)]Man(a1-6)[Gal(b1-4)GlcNAc(b1-3)Gal(b1-4)GlcNAc(b1-3)Gal(b1-4)GlcNAc(b1-3)Gal(b1-4)GlcNAc(b1-2)Man(a1-3)]Man(b1-4)GlcNAc(b1-4)[Fuc(a1-6)]GlcNAc
# In short: as §1
# [11] = molecular target: Gal(b1-4)GlcNAc(b1-3)Gal(b1-4)GlcNAc(b1-3)Gal(b1-4)GlcNAc(b1-3)Gal(b1-4)GlcNAc(b1-3)Gal(b1-4)GlcNAc(b1-2)Man(a1-3)[Gal(b1-4)GlcNAc(b1-3)Gal(b1-4)GlcNAc(b1-3)Gal(b1-4)GlcNAc(b1-3)Gal(b1-4)GlcNAc(b1-3)Gal(b1-4)GlcNAc(b1-2)Man(a1-6)]Man(b1-4)GlcNAc(b1-4)GlcNAc
# In short: as §1
# [12] = molecular target: Gal(b1-4)GlcNAc(b1-3)Gal(b1-4)GlcNAc(b1-3)Gal(b1-4)GlcNAc(b1-3)Gal(b1-4)GlcNAc(b1-3)Gal(b1-4)GlcNAc(b1-2)Man(a1-3)[Gal(b1-4)GlcNAc(b1-3)Gal(b1-4)GlcNAc(b1-3)Gal(b1-4)GlcNAc(b1-3)Gal(b1-4)GlcNAc(b1-3)Gal(b1-4)GlcNAc(b1-2)Man(a1-6)]Man(b1-4)GlcNAc(b1-4)[Fuc(a1-6)]GlcNAc
# In short: as §1
# [13] = molecular target: Gal(b1-4)GlcNAc(b1-3)Gal(b1-4)GlcNAc(b1-3)Gal(b1-4)GlcNAc(b1-3)Gal(b1-4)GlcNAc(b1-3)Gal(b1-4)GlcNAc(b1-2)[Gal(b1-4)GlcNAc(b1-3)Gal(b1-4)GlcNAc(b1-3)Gal(b1-4)GlcNAc(b1-3)Gal(b1-4)GlcNAc(b1-3)Gal(b1-4)GlcNAc(b1-6)]Man(a1-6)[Gal(b1-4)GlcNAc(b1-3)Gal(b1-4)GlcNAc(b1-3)Gal(b1-4)GlcNAc(b1-3)Gal(b1-4)GlcNAc(b1-3)Gal(b1-4)GlcNAc(b1-2)Man(a1-3)]Man(b1-4)GlcNAc(b1-4)[Fuc(a1-6)]GlcNAc
# In short: as §1
# [14] = molecular target: Gal(b1-4)GlcNAc(b1-3)Gal(b1-4)GlcNAc(b1-3)Gal(b1-4)GlcNAc(b1-3)Gal(b1-4)GlcNAc(b1-3)Gal(b1-4)GlcNAc(b1-3)Gal(b1-4)GlcNAc(b1-2)Man(a1-3)[Gal(b1-4)GlcNAc(b1-3)Gal(b1-4)GlcNAc(b1-3)Gal(b1-4)GlcNAc(b1-3)Gal(b1-4)GlcNAc(b1-3)Gal(b1-4)GlcNAc(b1-3)Gal(b1-4)GlcNAc(b1-2)Man(a1-6)]Man(b1-4)GlcNAc(b1-4)GlcNAc
# In short: as §1
# [15] = molecular target: Gal(b1-4)GlcNAc(b1-3)Gal(b1-4)GlcNAc(b1-3)GalNAc
# In short: as §1
# [16] = molecular target: Gal(b1-4)GlcNAc(b1-3)Gal(b1-4)GlcNAc(b1-3)[Gal(b1-4)GlcNAc(b1-3)Gal(b1-4)GlcNAc(b1-6)]GalNAc
# In short: as §1
# [17] = molecular target: Gal(b1-4)GlcNAc(b1-3)Gal(b1-4)GlcNAc(b1-6)[Gal(b1-3)]GalNAc
# In short: as §1
# [18] = molecular target: Gal(b1-4)GlcNAc(b1-3)Gal(b1-4)[Fuc(a1-3)]GlcNAc(b1-3)Gal(b1-4)[Fuc(a1-3)]GlcNAc
# In short: as §1
# [19] = molecular target: Gal(b1-4)GlcNAc(b1-3)GalNAc
# In short: as §1
# [20] = molecular target: Gal(b1-4)GlcNAc(b1-3)[Fuc(a1-3)GlcNAc(b1-6)]Gal(b1-4)Glc
# In short: as §1
# [21] = molecular target: Gal(b1-4)GlcNAc(b1-3)[Gal(b1-4)GlcNAc(b1-6)]Gal(b1-4)GlcNAc
# In short: as §1
# [22] = molecular target: Gal(b1-4)GlcNAc(b1-3)[GlcNAc(b1-6)]Gal(b1-4)GlcNAc
# In short: as §1
# [23] = molecular target: Gal(b1-4)GlcNAc(b1-6)Gal(b1-4)GlcNAc
# In short: as §1
# [24] = molecular target: Gal(b1-4)GlcNAc(b1-6)GalNAc
# In short: as §1
# [25] = molecular target: Gal(b1-4)GlcNAc(b1-6)[Gal(b1-3)]GalNAc
# In short: as §1
# [26] = molecular target: Gal(b1-4)GlcNAc(b1-6)[Gal(b1-4)GlcNAc(b1-3)]GalNAc
# In short: as §1
# [27] = molecular target: Gal(b1-4)GlcNAc6P
# In short: as §1
# [28] = molecular target: Gal(b1-6)Gal
# In short: as §1
# [29] = molecular target: Gal3S(b1-3)GalNAc
# In short: as §1
# [30] = molecular target: Gal3S(b1-3)GlcNAc
# In short: as §1
# [31] = molecular target: Gal3S(b1-3)[Fuc(a1-4)]GlcNAc
# In short: as §1
# [32] = molecular target: Gal3S(b1-4)Glc
# In short: as §1
# [33] = molecular target: Gal3S(b1-4)Glc6S
# In short: as §1
# [34] = molecular target: Gal3S(b1-4)GlcNAc
# In short: as §1
# [35] = molecular target: Gal3S(b1-4)[Fuc(a1-3)]Glc6S
# In short: as §1
# [36] = molecular target: Gal3S(b1-4)[Fuc(a1-3)]GlcNAc
# In short: as §1
# [37] = molecular target: Gal3S(b1-4)[Fuc(a1-3)]GlcNAc6S
# In short: as §1
# [38] = molecular target: Gal3S4S(b1-4)GlcNAc
# In short: as §1
# [39] = molecular target: Gal3S6S(b1-4)GlcNAc
# In short: as §1
# [40] = molecular target: Gal3S6S(b1-4)GlcNAc6S
# In short: as §1
# [41] = molecular target: Gal4S(b1-4)GlcNAc
# In short: as §1
# [42] = molecular target: Gal4S6S(b1-4)GlcNAc
# In short: as §1
# [43] = molecular target: Gal6P(b1-4)GlcNAc
# In short: as §1
# [44] = molecular target: Gal6S(b1-3)GlcNAc
# In short: as §1
# [45] = molecular target: Gal6S(b1-3)GlcNAc6S
# In short: as §1
binder,measurement,setting,value
"LgFlo1 (Saccharomyces pastorianus), B3IUA8 (protein) SGSTQACLPVGSRKNGMNVNFYKYSLQDSTTYSDPQYMAYKYSDTKKLGSVSGQTHLSIYYGPNTAFWNTASWSSDLFGFYTTPTNVTVEMTGYFLPPQTGSYTFKFATVDDSAILSVGGSIAFECCAQEQPPITSTDFTINGIKPWDAATPTDIKGSTYMYAGYYYPIKIVYSNAKALARLPVSVVLPDGTEVNDDFEGYVYSFDDDLSQSNCTIPDPSKHTTS",glycan array binding signal (z-score),[1],-0.163
same,glycan array binding signal (z-score),[2],-0.148
same,glycan array binding signal (z-score),[3],0.012
same,glycan array binding signal (z-score),[4],-0.309
same,glycan array binding signal (z-score),[5],0.236
same,glycan array binding signal (z-score),[6],-0.238
same,glycan array binding signal (z-score),[7],0.239
same,glycan array binding signal (z-score),[8],0.015
same,glycan array binding signal (z-score),[9],-0.183
same,glycan array binding signal (z-score),[10],0.383
same,glycan array binding signal (z-score),[11],-0.16
same,glycan array binding signal (z-score),[12],0.003
same,glycan array binding signal (z-score),[13],-0.153
same,glycan array binding signal (z-score),[14],-0.004
same,glycan array binding signal (z-score),[15],-0.442
same,glycan array binding signal (z-score),[16],-0.087
same,glycan array binding signal (z-score),[17],-0.423
same,glycan array binding signal (z-score),[18],-0.245
same,glycan array binding signal (z-score),[19],-0.314
same,glycan array binding signal (z-score),[20],-0.412
same,glycan array binding signal (z-score),[21],-0.289
same,glycan array binding signal (z-score),[22],-0.09
same,glycan array binding signal (z-score),[23],0.015
same,glycan array binding signal (z-score),[24],-0.099
same,glycan array binding signal (z-score),[25],-0.383
same,glycan array binding signal (z-score),[26],-0.21
same,glycan array binding signal (z-score),[27],-0.242
same,glycan array binding signal (z-score),[28],0.201
same,glycan array binding signal (z-score),[29],-0.277
same,glycan array binding signal (z-score),[30],-0.347
same,glycan array binding signal (z-score),[31],-0.286
same,glycan array binding signal (z-score),[32],-0.258
same,glycan array binding signal (z-score),[33],-0.25
same,glycan array binding signal (z-score),[34],-0.484
same,glycan array binding signal (z-score),[35],0.295
same,glycan array binding signal (z-score),[36],-0.442
same,glycan array binding signal (z-score),[37],-0.271
same,glycan array binding signal (z-score),[38],-0.361
same,glycan array binding signal (z-score),[39],-0.232
same,glycan array binding signal (z-score),[40],0.039
same,glycan array binding signal (z-score),[41],-0.384
same,glycan array binding signal (z-score),[42],-0.238
same,glycan array binding signal (z-score),[43],-0.356
same,glycan array binding signal (z-score),[44],0.121
same,glycan array binding signal (z-score),[45],-0.314
